# Values of other authors in US20170096636A1, “METHODS AND COMPOUNDS FOR PHOTOTHERAPY WITH CHALCOGENORHODAMINE PHOTOSENSITIZERS” (Wake Forest University Health Sciences, priority 2014, published 2017).
# Where two headings read alike, the source gives them in different places.
# Test system: MDCK-MDR1 cells
# Details: cited from earlier work; for PBA: transport in secretory direction (basolateral to apical)
# [1] = MDCK-MDR1 cells, thiorhodamine-treated and fully inhibited systems
SMILES,Ratio (+/−inhibitor) % Cell Associated Photosensitizer [1],PBA (MDCK-MDR1 cells) [nm/s],Ratio (+/−inhibitor) % Cell Associated Photosensitizer
CN1CCC(C)(C)c2cc3c(-c4ccc(C(=S)N5CCCCC5)s4)c4ccc(=[N+](C)C)cc-4sc3cc21.F[P-](F)(F)(F)(F)F [1-S—PF6],1.8,34,–
CN1CCC(C)(C)c2cc3c(-c4ccc(C(=O)N5CCCCC5)s4)c4ccc(=[N+](C)C)cc-4sc3cc21.F[P-](F)(F)(F)(F)F [2-S—PF6],5.2,230,–
CCN(CC)C(=S)c1ccc(-c2c3ccc(=[N+](C)C)cc-3sc3cc4c(cc23)C(C)(C)CCN4C)s1.F[P-](F)(F)(F)(F)F [3-S—PF6],1.2,69,–
CCN(CC)C(=O)c1ccc(-c2c3ccc(=[N+](C)C)cc-3sc3cc4c(cc23)C(C)(C)CCN4C)s1.F[P-](F)(F)(F)(F)F [4-S—PF6],3.3,370,–
CN(C)c1ccc2c(-c3ccc(C(=S)N4CCCCC4)s3)c3cc4c5c(c3[s+]c2c1)CCCN5CCC4.F[P-](F)(F)(F)(F)F [5-S—PF6],2.1,83,–
CN(C)c1ccc2c(-c3ccc(C(=O)N4CCCCC4)s3)c3cc4c5c(c3[s+]c2c1)CCCN5CCC4.F[P-](F)(F)(F)(F)F [6-S—PF6],6.1,220,–
CCN(CC)C(=S)c1ccc(-c2c3ccc(N(C)C)cc3[s+]c3c4c5c(cc23)CCCN5CCC4)s1.F[P-](F)(F)(F)(F)F [7-S—PF6],1.8,65,–
CCN(CC)C(=O)c1ccc(-c2c3ccc(N(C)C)cc3[s+]c3c4c5c(cc23)CCCN5CCC4)s1.F[P-](F)(F)(F)(F)F [8-S—PF6],–,–,4.8
